Hit rate of the full screen: of about 390,000 compounds, about 17,000 (4.4%) were called active. This list was built around the results that the source calls inconclusive (neither active nor inactive); the mix of calls is not that of the screen. Calls follow the shape of the dose curve; as a rule, active = well fitted inhibition curve with a large enough effect; inconclusive = small, poorly fitted or top-dose-only effect; inactive = no such curve, though single readings can be large or run the other way. A potency beside an inconclusive call is a rough fit, not a confirmed value.
What follows are compounds tested against Lysine-specific demethylase 4A (Homo sapiens) (UniProt O75164) (assay: qHTS Assay for Inhibitors of JMJD2A-Tudor Domain). Conditions: AlphaScreen JMJD2A-Tudor / H3K4me3 peptide binding; series mostly up to 114 µM.
Also: nearly all actives have a fitted effect of over 50% in size.
Potency is read from the fitted curve at half-maximal effect; tags tell the direction and shape of the fitted curve.

Chain of UniProt O75164 (O75164 whole entry, looked up, the tested form may be a part): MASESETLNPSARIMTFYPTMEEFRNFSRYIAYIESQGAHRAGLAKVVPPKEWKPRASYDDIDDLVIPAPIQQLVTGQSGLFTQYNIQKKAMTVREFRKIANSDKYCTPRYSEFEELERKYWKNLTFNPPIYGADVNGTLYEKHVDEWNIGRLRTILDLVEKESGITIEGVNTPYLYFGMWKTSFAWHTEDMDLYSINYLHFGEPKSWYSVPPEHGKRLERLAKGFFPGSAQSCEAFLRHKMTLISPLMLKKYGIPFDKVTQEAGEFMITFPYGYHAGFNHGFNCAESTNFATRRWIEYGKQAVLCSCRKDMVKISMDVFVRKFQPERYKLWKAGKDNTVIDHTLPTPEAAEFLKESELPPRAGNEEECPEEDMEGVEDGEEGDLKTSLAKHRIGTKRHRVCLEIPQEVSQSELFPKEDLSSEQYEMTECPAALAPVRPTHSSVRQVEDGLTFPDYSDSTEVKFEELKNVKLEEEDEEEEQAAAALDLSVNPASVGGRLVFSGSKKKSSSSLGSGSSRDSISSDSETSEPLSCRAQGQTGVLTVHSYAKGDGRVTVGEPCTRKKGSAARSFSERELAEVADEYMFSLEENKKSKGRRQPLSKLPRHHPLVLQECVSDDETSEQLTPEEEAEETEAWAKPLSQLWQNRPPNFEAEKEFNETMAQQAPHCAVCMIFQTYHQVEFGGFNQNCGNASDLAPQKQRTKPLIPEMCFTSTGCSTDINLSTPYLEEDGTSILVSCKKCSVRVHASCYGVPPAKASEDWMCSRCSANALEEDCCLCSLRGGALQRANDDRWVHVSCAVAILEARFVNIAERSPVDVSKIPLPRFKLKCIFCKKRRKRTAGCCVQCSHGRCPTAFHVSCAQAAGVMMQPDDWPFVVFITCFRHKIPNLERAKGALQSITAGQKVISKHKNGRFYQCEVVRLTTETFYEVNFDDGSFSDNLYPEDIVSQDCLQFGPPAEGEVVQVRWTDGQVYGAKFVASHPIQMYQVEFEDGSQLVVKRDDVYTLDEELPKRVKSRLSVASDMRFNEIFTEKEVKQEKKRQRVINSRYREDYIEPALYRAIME

Potency, active:
CCOc1cc(N2CCOCC2)c(OCC)cc1NC(=O)c1cc(-c2ccco2)nc2ccccc12 50.1 µM
COc1ccc(-c2cc(=O)oc3c(C)c(O)c(CN(C)C)cc23)cc1 22.4 µM
CCN(CC)/[N+]([O-])=N/Oc1cc(O/[N+]([O-])=N/N2CCCC2CO)c([N+](=O)[O-])cc1[N+](=O)[O-] (centres undefined) 20 µM
O=C(N/N=C(\c1ccccc1)c1cccnc1)c1cccc(F)c1 44.7 µM
O=[N+]([O-])c1cccc(CNc2ccc3c(c2)CCC3)c1 1.41 µM
CC(NC(=O)CN(C)CC(=O)Nc1ccccc1Br)c1ccccc1 (centres undefined) 28.2 µM
Cc1c(NC(=O)CSc2ccc3c(c2)OCCO3)c(=O)n(-c2ccccc2)n1C 50.1 µM
O=C(O)c1ccc(-n2c(-c3cc(-c4ccco4)[nH]n3)n[nH]c2=S)cc1 20 µM
Clc1ccc(CN2CCC(Cc3ccccc3)CC2)cc1 20 µM
OC(CNCCC1C=Nc2ccccc21)Cn1c2ccc(Cl)cc2c2cc(Cl)ccc21 (centres undefined) 39.8 µM
C=CCc1cc(Cl)ccc1OCCn1ccnc1 20 µM

Potency, inactive:
Cc1cccc(NNC(N)=S)c1C
CCN(CC)CCNC(=O)c1ccccc1N
COc1ccc(O)c(CN2CCN(CCCc3ccccc3)C(CCO)C2)c1 (centres undefined)
COc1ccc(-c2noc(-c3cccnc3NCc3ccco3)n2)cc1
CC(C)C(=O)Nc1c(-c2cccc(Cl)c2)c(=O)c2ccccc2n1C
COc1ccccc1Oc1ccc(S(=O)(=O)N2CCN(C)CC2)cc1
CCCN(CCC)S(=O)(=O)c1ccc(C(=O)NCc2ccc3c(c2)OCO3)cc1
Cc1ccc(Oc2c(C(F)(F)F)oc3cc(OCC(=O)NC4CCCCC4)ccc3c2=O)cc1
COc1cccc(/C=C/C(=O)OCC(=O)NC2CCCCCCC2)c1
O=C(Cn1c(-c2cccs2)cc2cc(Cl)ccc21)N1CCN(c2ccccc2)CC1
Nc1cccc(-c2cnc3ccccc3n2)c1
COc1ccc(-c2cccc(NS(=O)(=O)c3cc(C)c(OC)c(C)c3C)c2)nn1
COC(=O)c1scc(C)c1NS(=O)(=O)c1ccc(NC(C)=O)cc1
O=C(c1ccco1)N1N=C(c2cccs2)CC1c1ccc(F)cc1 (centres undefined)
CCC(C)NC(=O)C1CCN(S(=O)(=O)c2ccc3nc4c(c(C(=O)O)c3c2)CCCCC4)CC1 (centres undefined)
O=C(C[n+]1cc(-c2ccccc2)n2c1CCCCC2)c1ccc(Cl)cc1

Potency, inconclusive:
CCOc1ccc(Nc2nc(NCC3CCCO3)c3ccccc3n2)cc1 (centres undefined) 31.6 µM [inhibitor, partial curve]
COc1ccc(/C=C/C(=O)c2ccc(C)c([N+](=O)[O-])c2)cc1O 50.1 µM [inhibitor, partial curve]
CCC1CN(C(=O)N2CCC(C(=O)NCCN(CC)CC)CC2)c2ccccc2O1 (centres undefined) 22.4 µM [inhibitor, full curve]
O=C(C1CCN(c2nnc(-n3cccc3)s2)CC1)N1CCc2ccccc2C1 100 µM [inhibitor, partial curve, poor fit]
Cc1ccc(C(=O)O)cc1-c1ccc(C=C2C(=O)c3ccccc3C2=O)o1 3.98 µM [inhibitor, single point]
N#Cc1ccc(C(=O)OCc2cccc(S(=O)(=O)N3CCOCC3)c2)cc1 39.8 µM [inhibitor, single point]
COc1ccc(CCNC(=O)[C@H](C)N2C(=O)N3CCc4c([nH]c5ccccc45)[C@@]3(C)C2=O)cc1 56.2 µM [inhibitor, partial curve]
O=C(NCCc1ccccc1)c1cc2sccc2n1Cc1ccccc1 70.8 µM [inhibitor, partial curve]
N/C(=N\OC(=O)CSc1ccccc1)c1cccc([N+](=O)[O-])c1 22.4 µM [inhibitor, partial curve]
CCc1ccc(-c2nc(CN3CCCC(C(=O)N4CCN(c5cc(Cl)ccc5C)CC4)C3)c(C)o2)cc1 (centres undefined) 10 µM [inhibitor, full curve]
O=C(NCCc1c[nH]c2ccccc12)c1cc2ccccc2oc1=O 56.2 µM [inhibitor, partial curve]
COc1ccc2nc(-c3ccc(N)cc3)[nH]c2c1 79.4 µM [inhibitor, partial curve]
O=C(CN1CCN(c2ccccc2)CC1)Nc1ccc(Oc2ccccc2)cc1 44.7 µM [inhibitor, partial curve]
Cc1ccc(OCC(O)CNS(=O)(=O)c2ccccc2C(=O)N2CCCCC2)cc1 (centres undefined) 100 µM [inhibitor, single point]
C/C(CC(=O)Nc1ccc(N(C)C)cc1)=N\NC(=O)c1ccc([N+](=O)[O-])cc1Cl 22.4 µM [inhibitor, full curve]
O=C(/C=C/c1ccccc1Cl)c1ccccc(=O)c1O 56.2 µM [inhibitor, partial curve]
Oc1ccc(Br)cc1/C=N/n1c(COc2ccccc2)n[nH]c1=S 31.6 µM [inhibitor, partial curve]
CCOC(=O)c1csc(N)c1-c1ccc([N+](=O)[O-])cc1 63.1 µM [inhibitor, partial curve]
Cc1cccc(NC(=S)N=Nc2c(O)n(CN3CCOCC3)c3ccccc23)c1C 25.1 µM [inhibitor, full curve, poor fit]
CN(C)c1ccc(C2Nc3cccc4cccc(c34)N2)cc1 17.8 µM [inhibitor, full curve]
Cn1c(=O)c2c(nc(NCc3ccccc3)n2CCCc2ccccc2)n(C)c1=O 79.4 µM [inhibitor, partial curve]
O=C(CCn1ccc2cc(S(=O)(=O)N3CCCC3)ccc21)NCc1cccc(F)c1 15.8 µM [inhibitor, partial curve, poor fit]

From PubChem BioAssay AID504339 (National Center for Advancing Translational Sciences (NCATS), 2011)
